Consider one molecule from article PMC5777823 (eLife, 2017).

The target of the assay is T1, CENP-LN complex (human, UniProt Q8N0S6; Q96H22).
T1 construct: CENP-L, human; CENP-N, human, 339 residues; Form used in SEC, named without GST; The methods say that eluted GST fusions were concentrated either alone or with GST-tagged 3C protease; the tag was probably cleaved for SEC; also called CENP-L:CENP-N; CENP-NL; source: Tnao38 insect cells (baculovirus, co-expressed), purified (GSH-Sepharose, Superdex 200)
Briefly: SEC; analytical SEC on Superdex 200 5/150 or Superose 6 5/150; 20 mM HEPES pH 7.5, 300 mM NaCl, 2.5% glycerol, 2 mM TCEP, 4°C; proteins mixed at 6 μM, one hour on ice; fractions by SDS-PAGE and Coomassie. The following applies: both partners purified. For orientation: Size exclusion chromatography separates by hydrodynamic size, large species first.

T1 sequence (Q8N0S6 whole entry, chain 1 of 2, the tested form may be a part): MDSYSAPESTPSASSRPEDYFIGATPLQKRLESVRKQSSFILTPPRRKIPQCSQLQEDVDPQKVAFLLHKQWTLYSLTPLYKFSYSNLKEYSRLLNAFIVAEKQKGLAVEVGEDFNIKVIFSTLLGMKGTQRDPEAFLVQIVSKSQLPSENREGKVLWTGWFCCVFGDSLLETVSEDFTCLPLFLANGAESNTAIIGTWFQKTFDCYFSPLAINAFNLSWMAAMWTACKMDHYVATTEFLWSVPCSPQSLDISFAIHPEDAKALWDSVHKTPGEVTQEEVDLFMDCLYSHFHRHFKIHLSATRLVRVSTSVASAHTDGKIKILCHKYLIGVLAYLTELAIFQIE
T1 sequence (Q96H22 whole entry, chain 2 of 2, further chain, the tested form may be a part): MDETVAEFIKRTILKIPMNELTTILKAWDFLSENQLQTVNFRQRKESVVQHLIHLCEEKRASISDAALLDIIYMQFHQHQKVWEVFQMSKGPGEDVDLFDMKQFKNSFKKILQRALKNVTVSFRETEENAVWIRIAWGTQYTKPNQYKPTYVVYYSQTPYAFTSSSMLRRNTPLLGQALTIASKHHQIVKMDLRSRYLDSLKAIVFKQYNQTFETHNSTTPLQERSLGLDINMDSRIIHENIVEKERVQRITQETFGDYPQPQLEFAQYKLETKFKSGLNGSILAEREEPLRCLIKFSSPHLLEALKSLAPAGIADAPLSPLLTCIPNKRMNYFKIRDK

B1: CENP-C^[…] (domain or fragment)
chain: not shown
notes: pGEX-6P-2rbs; named without GST in the assays; source: bacteria, purified as described (Klare et al., 2015)
As to B1, the binding result is “binds”.
